SMILES strings stand for the structures. The list shows a part of the results. Single values are uncertain, as repeats are few or missing.

Assay in all cases: cell count relative to DMSO control; melanoma cells; higher = more viable cells
What all share (details): library dose: low library concentration; 72 h

Test [1] relates to WM115.
The subject of test [2] is WM1716.
Test [3] concerns WM1745.
The test system of test [4] is WM3526.
Test [5] concerns WM3619.
Test [6] concerns WM451Lu.
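Also: cell number obtained by counting DAPI-stained nuclei in high-throughput microscope images with image analysis software, screen run in 1,536-well plates.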

Consider `Cc1cc(Nc2cc(N3CCN(C)CC3)nc(Sc3ccc(NC(=O)C4CC4)cc3)n2)n[nH]1` [Tozasertib] + C[C@]1(c2nc3c(C(N)=O)cccc3[nH]2)CCCN1 [Veliparib] (first compound 0.006 µM, partner dose 1.4 µM), for which the cell count in test [1] was found to be 84.6%; in test [2], 78%; in test [3] it was 79.9%; in test [4] it was 97.9%; in test [5], 65.4%; in test [6], 113%.
`N#CC[C@H](C1CCCC1)n1cc(-c2ncnc3[nH]ccc23)cn1` [ruxolitinib] + Cn1cc(/C=C2\C(=O)Nc3cccnc32)c2ccccc21 [GW441756] (first compound 1 µM, partner dose 0.4 µM): the cell count in test [1] came out at 101%; in test [2] it was 117%; in test [3], 97.9%; in test [4], 114%; in test [5], 104%; in test [6] it was 106%.
For the compound `N#CC[C@H](C1CCCC1)n1cc(-c2ncnc3[nH]ccc23)cn1` [ruxolitinib] + Nc1ccn([C@@H]2O[C@H](CO)[C@@H](O)C2(F)F)c(=O)n1 [gemcitabine] (first compound 1 µM, partner dose 0.0004 µM), the cell count in test [1] turned out to be 95.4%; in test [2] it was 97.6%; in test [3], 79.5%; in test [4], 105%; in test [5], 65.4%; in test [6], 93.9%.
Turning to `Cc1cc(Nc2cc(N3CCN(C)CC3)nc(Sc3ccc(NC(=O)C4CC4)cc3)n2)n[nH]1` [Tozasertib] + Cn1cc(/C=C2\C(=O)Nc3cccnc32)c2ccccc21 [GW441756] (first compound 0.006 µM, partner dose 0.4 µM), the cell count was determined as 89.9% in test [1]; 109% in test [2]; 98.3% in test [3]; 94.2% in test [4]; 90.5% in test [5]; 93.6% in test [6].
On to `CC[C@]1(O)C[C@H]2CN(CCc3c([nH]c4ccccc34)[C@@](C(=O)OC)(c3cc4c(cc3OC)N(C=O)[C@H]3[C@@](O)(C(=O)OC)[C@H](OC(C)=O)[C@]5(CC)C=CCN6CC[C@]43[C@@H]65)C2)C1` [vincristine] + CS(=O)(=O)c1ccc(C(=O)Nc2ccc(Cl)c(-c3ccccn3)c2)c(Cl)c1 [vismodegib] (first compound 0.0001 µM, partner dose 1 µM), for which the cell count in test [1] was 55.5%; in test [2] it was 46%; in test [3], 89.1%; in test [4], 86%; in test [5], 53.5%; in test [6], 74.2%.
On to `CC[C@]1(O)C[C@H]2CN(CCc3c([nH]c4ccccc34)[C@@](C(=O)OC)(c3cc4c(cc3OC)N(C=O)[C@H]3[C@@](O)(C(=O)OC)[C@H](OC(C)=O)[C@]5(CC)C=CCN6CC[C@]43[C@@H]65)C2)C1` [vincristine] + CCN(CC)CCNC(=O)c1c(C)[nH]c(/C=C2\C(=O)Nc3ccc(F)cc32)c1C [sunitinib] (first compound 0.0001 µM, partner dose 0.4 µM), for which the cell count amounted to 66.1% in test [1]; 75.9% in test [2]; 85.5% in test [3]; 89.5% in test [4]; 104% in test [5]; 80.5% in test [6].
Regarding `CC[C@]1(O)C[C@H]2CN(CCc3c([nH]c4ccccc34)[C@@](C(=O)OC)(c3cc4c(cc3OC)N(C=O)[C@H]3[C@@](O)(C(=O)OC)[C@H](OC(C)=O)[C@]5(CC)C=CCN6CC[C@]43[C@@H]65)C2)C1` [vincristine] + Cc1cn(-c2cc(NC(=O)c3ccc(C)c(Nc4nccc(-c5cccnc5)n4)c3)cc(C(F)(F)F)c2)cn1 [nilotinib] (first compound 0.0001 µM, partner dose 0.2 µM), the cell count in test [1] came to 53.1%; in test [2] it was 39.8%; in test [3] it was 69%; in test [4], 68.8%; in test [5] it was 39.5%; in test [6] it was 44.2%.
As for `CC[C@]1(O)C[C@H]2CN(CCc3c([nH]c4ccccc34)[C@@](C(=O)OC)(c3cc4c(cc3OC)N(C=O)[C@H]3[C@@](O)(C(=O)OC)[C@H](OC(C)=O)[C@]5(CC)C=CCN6CC[C@]43[C@@H]65)C2)C1` [vincristine] + CN1CCN(c2ccc3nc(-c4c(N)c5c(F)cccc5[nH]c4=O)[nH]c3c2)CC1 [Dovitinib] (first compound 0.0001 µM, partner dose 0.1 µM), the cell count in test [1] was 60.7%; in test [2], 46%; in test [3], 96%; in test [4], 61.4%; in test [5], 46.5%; in test [6], 49.4%.
As for `N#CC[C@H](C1CCCC1)n1cc(-c2ncnc3[nH]ccc23)cn1` [ruxolitinib] + O=C(Nc1ccccc1)c1cc([N+](=O)[O-])ccc1Cl [GW9662] (first compound 1 µM, partner dose 2 µM), the cell count in test [1] worked out at 107%; in test [2], 97.9%; in test [3], 85.2%; in test [4], 86.7%; in test [5] it was 106%; in test [6], 95.8%.
With `Cc1cc(Nc2cc(N3CCN(C)CC3)nc(Sc3ccc(NC(=O)C4CC4)cc3)n2)n[nH]1` [Tozasertib] + O=C(Nc1cccc(Cl)c1)Nc1ncc(CCNc2ncnc3ccsc23)s1 [SNS314] (first compound 0.006 µM, partner dose 0.0008 µM), the cell count in test [1] worked out at 75.5%; in test [2] it was 100%; in test [3], 78%; in test [4] it was 87.4%; in test [5], 114%; in test [6], 100%.
In the case of `N#CC[C@H](C1CCCC1)n1cc(-c2ncnc3[nH]ccc23)cn1` [ruxolitinib] + COc1ccc(-c2ccc3c(N4CCOCC4)nc(N4C[C@@H](C)O[C@@H](C)C4)nc3n2)cc1CO [KU0063794] (first compound 1 µM, partner dose 0.02 µM), the cell count amounted to 109% in test [1]; 91.1% in test [2]; 87.7% in test [3]; 103% in test [4]; 82.1% in test [5]; 96.3% in test [6].
As for `N#CC[C@H](C1CCCC1)n1cc(-c2ncnc3[nH]ccc23)cn1` [ruxolitinib] + CC(=O)c1c(C)c2cnc(Nc3ccc(N4CCNCC4)cn3)nc2n(C2CCCC2)c1=O [palbociclib] (first compound 1 µM, partner dose 0.04 µM), the cell count in test [1] amounted to 93.6%; in test [2], 71.2%; in test [3], 82.4%; in test [4], 66.2%; in test [5] it was 75.7%; in test [6], 86.5%.
As for `Cc1cc(Nc2cc(N3CCN(C)CC3)nc(Sc3ccc(NC(=O)C4CC4)cc3)n2)n[nH]1` [Tozasertib] + O=C1NC(=O)/C(=C/c2ccc(-c3ccc(F)cc3O)o2)S1 [AS252424] (first compound 0.006 µM, partner dose 1 µM), the cell count was determined as 87.6% in test [1]; 94.1% in test [2]; 82.1% in test [3]; 80.1% in test [4]; 79.1% in test [5]; 94.8% in test [6].
For the compound `Cc1cc(Nc2cc(N3CCN(C)CC3)nc(Sc3ccc(NC(=O)C4CC4)cc3)n2)n[nH]1` [Tozasertib] + CC[C@]1(O)C[C@H]2CN(CCc3c([nH]c4ccccc34)[C@@](C(=O)OC)(c3cc4c(cc3OC)N(C=O)[C@H]3[C@@](O)(C(=O)OC)[C@H](OC(C)=O)[C@]5(CC)C=CCN6CC[C@]43[C@@H]65)C2)C1 [vincristine] (first compound 0.006 µM, partner dose 0.0001 µM), the cell count in test [1] stood at 61.8%; in test [2], 48.8%; in test [3] it was 75.9%; in test [4], 70.5%; in test [5], 58.9%; in test [6], 93.1%.
Consider `Cc1cc(Nc2cc(N3CCN(C)CC3)nc(Sc3ccc(NC(=O)C4CC4)cc3)n2)n[nH]1` [Tozasertib] + CC(=O)c1c(C)c2cnc(Nc3ccc(N4CCNCC4)cn3)nc2n(C2CCCC2)c1=O [palbociclib] (first compound 0.006 µM, partner dose 0.04 µM), for which the cell count in test [1] stood at 69.5%; in test [2], 59.2%; in test [3] it was 78.5%; in test [4], 59.1%; in test [5] it was 65.7%; in test [6], 74.8%.
Regarding `Cc1cc(Nc2cc(N3CCN(C)CC3)nc(Sc3ccc(NC(=O)C4CC4)cc3)n2)n[nH]1` [Tozasertib] + CS(=O)(=O)c1ccc(C(=O)Nc2ccc(Cl)c(-c3ccccn3)c2)c(Cl)c1 [vismodegib] (first compound 0.006 µM, partner dose 1 µM), the cell count was 89.5% in test [1]; 104% in test [2]; 80.3% in test [3]; 95.2% in test [4]; 96.9% in test [5]; 105% in test [6].
Turning to `Cc1cc(Nc2cc(N3CCN(C)CC3)nc(Sc3ccc(NC(=O)C4CC4)cc3)n2)n[nH]1` [Tozasertib] + COC(=O)c1sccc1S(=O)(=O)Nc1ccc(Nc2ccccc2)cc1OC [GSK0660] (first compound 0.006 µM, partner dose 1 µM), the cell count in test [1] is 90.6%; in test [2], 95.4%; in test [3], 95.4%; in test [4], 78.7%; in test [5], 96.4%; in test [6], 81.7%.
Regarding `CC[C@]1(O)C[C@H]2CN(CCc3c([nH]c4ccccc34)[C@@](C(=O)OC)(c3cc4c(cc3OC)N(C=O)[C@H]3[C@@](O)(C(=O)OC)[C@H](OC(C)=O)[C@]5(CC)C=CCN6CC[C@]43[C@@H]65)C2)C1` [vincristine] + OCCn1cc(-c2cnc3nnn(Cc4ccc5ncccc5c4)c3n2)cn1 [PF04217903] (first compound 0.0001 µM, partner dose 1 µM), the cell count in test [1] turned out to be 65.8%; in test [2], 62.4%; in test [3] it was 97.8%; in test [4] it was 93.3%; in test [5], 85.6%; in test [6] it was 74.3%.
In the case of `Cc1cc(Nc2cc(N3CCN(C)CC3)nc(Sc3ccc(NC(=O)C4CC4)cc3)n2)n[nH]1` [Tozasertib] + Cc1nc(Nc2ncc(C(=O)Nc3c(C)cccc3Cl)s2)cc(N2CCN(CCO)CC2)n1 [dasatanib] (first compound 0.006 µM, partner dose 0.004 µM), the cell count came to 64.2% in test [1]; 77.9% in test [2]; 56.6% in test [3]; 100% in test [4]; 75.9% in test [5]; 64.5% in test [6].
As for `N#CC[C@H](C1CCCC1)n1cc(-c2ncnc3[nH]ccc23)cn1` [ruxolitinib] + COc1ccc(COc2ccc(Cc3cnc(N)nc3N)cc2OC)cc1 [GW2580] (first compound 1 µM, partner dose 1 µM), the cell count in test [1] is 123%; in test [2], 103%; in test [3], 94.2%; in test [5] it was 84.3%; in test [6], 92.5%.
As for `N#CC[C@H](C1CCCC1)n1cc(-c2ncnc3[nH]ccc23)cn1` [ruxolitinib] + C=CCNC1=C2C[C@@H](C)C[C@H](OC)[C@H](O)[C@@H](C)/C=C(\C)[C@H](OC(N)=O)[C@@H](OC)/C=C\C=C(/C)C(=O)NC(=CC1=O)C2=O [Tanespimycin] (first compound 1 µM, partner dose 0.002 µM), the cell count in test [2] worked out at 92%; in test [3], 74.3%; in test [4], 92.1%; in test [5] it was 64.1%; in test [6], 102%.
With `Cc1cc(Nc2cc(N3CCN(C)CC3)nc(Sc3ccc(NC(=O)C4CC4)cc3)n2)n[nH]1` [Tozasertib] + Cn1cncc1[C@@](N)(c1ccc(Cl)cc1)c1ccc2c(c1)c(-c1cccc(Cl)c1)cc(=O)n2C [tipifarnib] (first compound 0.006 µM, partner dose 0.01 µM), the cell count in test [1] is 92.4%; in test [2], 84.7%; in test [3] it was 90.8%; in test [4], 99.7%; in test [5] it was 97.7%; in test [6], 82.9%.

The record behind these values is the supplement of paper PMC4604168 (melanoma cell lines).
